Where a chain is given by its changes, count along the chain named. The list shows a part of the results.
T1: RBFOX1 RRM RbFoxmut (Fox-RRM*) (Homo sapiens, UniProt Q9NWB1 109-208, R118D;E147R;N151S;E152T)
T1 sequence: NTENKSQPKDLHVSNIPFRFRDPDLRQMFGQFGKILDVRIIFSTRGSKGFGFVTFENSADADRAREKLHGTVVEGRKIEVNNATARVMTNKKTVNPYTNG

B1: CGCGGGA (DNA:RNA)
RNA: GGGAGACCGGAAUUCAGAUUGUCCCGCGGGAUUAAAUCCCGUCGUAGCCACCA
DNA 1: CAATCTGAATTCCGGTCTCCC
DNA 2: TGGTGGCTACGACGGGATT
B2: GGUCGAU (DNA:RNA)
RNA: B1 RNA with C25G, C27U, G28C, G30A, A31U
DNA 1: CAATCTGAATTCCGGTCTCCC
DNA 2: TGGTGGCTACGACGGGATT
B3: UCCUCAA (DNA:RNA)
RNA: B1 RNA with C25U, G26C, G28U, G29C, G30A
DNA 1: CAATCTGAATTCCGGTCTCCC
DNA 2: TGGTGGCTACGACGGGATT
B4: GCUAACU (DNA:RNA)
RNA: GGGAGACCGGAAUUCAGAUUGUCCGCUAACUUUAAAUCCCGUCGUAGCCACCA
DNA 1: CAATCTGAATTCCGGTCTCCC
DNA 2: TGGTGGCTACGACGGGATT
B5: AAAUGGA (DNA:RNA)
RNA: B1 RNA with C25A, G26A, C27A, G28U
DNA 1: CAATCTGAATTCCGGTCTCCC
DNA 2: TGGTGGCTACGACGGGATT
B6: AUGGAAA (DNA:RNA)
RNA: B1 RNA with C25A, G26U, C27G, G29A, G30A
DNA 1: CAATCTGAATTCCGGTCTCCC
DNA 2: TGGTGGCTACGACGGGATT
B7: UUCUGCA (DNA:RNA)
RNA: B1 RNA with C25U, G26U, G28U, G30C
DNA 1: CAATCTGAATTCCGGTCTCCC
DNA 2: TGGTGGCTACGACGGGATT
B8: UUGAGAA (DNA:RNA)
RNA: B1 RNA with C25U, G26U, C27G, G28A, G30A
DNA 1: CAATCTGAATTCCGGTCTCCC
DNA 2: TGGTGGCTACGACGGGATT
B9: AGUUAAA (DNA:RNA)
RNA: B1 RNA with C25A, C27U, G28U, G29A, G30A
DNA 1: CAATCTGAATTCCGGTCTCCC
DNA 2: TGGTGGCTACGACGGGATT
B10: UGAUGUC (DNA:RNA)
RNA: B1 RNA with C25U, C27A, G28U, G30U, A31C
DNA 1: CAATCTGAATTCCGGTCTCCC
DNA 2: TGGTGGCTACGACGGGATT
B11: GUCGUUU (DNA:RNA)
RNA: B1 RNA with C25G, G26U, G29U, G30U, A31U
DNA 1: CAATCTGAATTCCGGTCTCCC
DNA 2: TGGTGGCTACGACGGGATT
B12: CUGCUUA (DNA:RNA)
RNA: B1 RNA with G26U, C27G, G28C, G29U, G30U
DNA 1: CAATCTGAATTCCGGTCTCCC
DNA 2: TGGTGGCTACGACGGGATT
B13: AAUCUAU (DNA:RNA)
RNA: B4 RNA with G25A, C26A, A28C, A29U, C30A
DNA 1: CAATCTGAATTCCGGTCTCCC
DNA 2: TGGTGGCTACGACGGGATT
B14: AACCCGG (DNA:RNA)
RNA: B1 RNA with C25A, G26A, G28C, G29C, A31G
DNA 1: CAATCTGAATTCCGGTCTCCC
DNA 2: TGGTGGCTACGACGGGATT
B15: GCCGGAC (DNA:RNA)
RNA: B1 RNA with C25G, G26C, G30A, A31C
DNA 1: CAATCTGAATTCCGGTCTCCC
DNA 2: TGGTGGCTACGACGGGATT
B16: GCCGUAC (DNA:RNA)
RNA: B1 RNA with C25G, G26C, G29U, G30A, A31C
DNA 1: CAATCTGAATTCCGGTCTCCC
DNA 2: TGGTGGCTACGACGGGATT
B17: UAGAAUA (DNA:RNA)
RNA: B4 RNA with G25U, C26A, U27G, C30U, U31A
DNA 1: CAATCTGAATTCCGGTCTCCC
DNA 2: TGGTGGCTACGACGGGATT
B18: UGGCCAA (DNA:RNA)
RNA: B1 RNA with C25U, C27G, G28C, G29C, G30A
DNA 1: CAATCTGAATTCCGGTCTCCC
DNA 2: TGGTGGCTACGACGGGATT
B19: GAUAAUC (DNA:RNA)
RNA: B4 RNA with C26A, C30U, U31C
DNA 1: CAATCTGAATTCCGGTCTCCC
DNA 2: TGGTGGCTACGACGGGATT
B20: ACCCAUG (DNA:RNA)
RNA: B4 RNA with G25A, U27C, A28C, C30U, U31G
DNA 1: CAATCTGAATTCCGGTCTCCC
DNA 2: TGGTGGCTACGACGGGATT
B21: GACCUCU (DNA:RNA)
RNA: B4 RNA with C26A, U27C, A28C, A29U
DNA 1: CAATCTGAATTCCGGTCTCCC
DNA 2: TGGTGGCTACGACGGGATT
B22: GACAGGU (DNA:RNA)
RNA: B1 RNA with C25G, G26A, G28A, A31U
DNA 1: CAATCTGAATTCCGGTCTCCC
DNA 2: TGGTGGCTACGACGGGATT
B23: CUAGCCG (DNA:RNA)
RNA: B1 RNA with G26U, C27A, G29C, G30C, A31G
DNA 1: CAATCTGAATTCCGGTCTCCC
DNA 2: TGGTGGCTACGACGGGATT
B24: GAGCGUG (DNA:RNA)
RNA: B1 RNA with C25G, G26A, C27G, G28C, G30U, A31G
DNA 1: CAATCTGAATTCCGGTCTCCC
DNA 2: TGGTGGCTACGACGGGATT
B25: AAGCAUU (DNA:RNA)
RNA: B4 RNA with G25A, C26A, U27G, A28C, C30U
DNA 1: CAATCTGAATTCCGGTCTCCC
DNA 2: TGGTGGCTACGACGGGATT
B26: AUUGCUC (DNA:RNA)
RNA: B1 RNA with C25A, G26U, C27U, G29C, G30U, A31C
DNA 1: CAATCTGAATTCCGGTCTCCC
DNA 2: TGGTGGCTACGACGGGATT
B27: GGAUCAA (DNA:RNA)
RNA: B1 RNA with C25G, C27A, G28U, G29C, G30A
DNA 1: CAATCTGAATTCCGGTCTCCC
DNA 2: TGGTGGCTACGACGGGATT
B28: UCUGGUG (DNA:RNA)
RNA: B1 RNA with C25U, G26C, C27U, G30U, A31G
DNA 1: CAATCTGAATTCCGGTCTCCC
DNA 2: TGGTGGCTACGACGGGATT
B29: CCGGAAG (DNA:RNA)
RNA: B1 RNA with G26C, C27G, G29A, G30A, A31G
DNA 1: CAATCTGAATTCCGGTCTCCC
DNA 2: TGGTGGCTACGACGGGATT
B30: AACAAAU (DNA:RNA)
RNA: B4 RNA with G25A, C26A, U27C, C30A
DNA 1: CAATCTGAATTCCGGTCTCCC
DNA 2: TGGTGGCTACGACGGGATT
B31: AAAAGAU (DNA:RNA)
RNA: B4 RNA with G25A, C26A, U27A, A29G, C30A
DNA 1: CAATCTGAATTCCGGTCTCCC
DNA 2: TGGTGGCTACGACGGGATT

Target: T1, RBFOX1 RRM RbFoxmut (Fox-RRM*)
Experiment: EMSA; HiTS-Eq, 1 nM pool, 10 min; buffer printed only for the single-RNA assays: 10 mM Tris pH 7.5, 150 mM NaCl, 3.4 mM EDTA, 0.001% NP-40, 30 C
Conditions: tags: His6 N-terminal (pET28a); label: 5' 32P
Procedure, shortened: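 These values rest on relative association constants, computed from read-count changes of each RNA species versus the control reaction and normalised to the cognate motif. Reads came from free RNA recovered by 8% native PAGE after purified RbFox RRM (wild type or mutant) at increasing concentrations was equilibrated for 10 min in 50 µL with 1 nM of a 5′-radiolabelled pool with 7 randomized nucleotides and DNA-annealed flanks.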

Q: With B1 as the binder, how does the binding signal read?
A: The binding signal was 0.0754 KA relative to UGCAUGU.

Q: With B2 as the binder, how does the binding signal read?
A: Its binding signal is 0.111 KA relative to UGCAUGU.

Q: How did the binding signal turn out when B3 was run?
A: Its binding signal is 0.0616 KA relative to UGCAUGU.

Q: How did the binding signal turn out when B4 was run?
A: Its binding signal is 0.0856 KA relative to UGCAUGU.

Q: How did the binding signal turn out when B5 was run?
A: Its binding signal is 0.0603 KA relative to UGCAUGU.

Q: For B6, which binding signal is on record?
A: The binding signal was 0.0889 KA relative to UGCAUGU.

Q: B7 was tested. Which binding signal did it give?
A: Its binding signal is 0.17 KA relative to UGCAUGU.

Q: For B8, which binding signal is on record?
A: The binding signal was 0.089 KA relative to UGCAUGU.

Q: B9 was tested. Which binding signal did it give?
A: Its binding signal is 0.109 KA relative to UGCAUGU.

Q: Which binding signal does the source give for B10 here?
A: The binding signal was 0.207 KA relative to UGCAUGU.

Q: Which binding signal does the source give for B11 here?
A: Its binding signal is 0.108 KA relative to UGCAUGU.

Q: With B12 as the binder, how does the binding signal read?
A: The binding signal was 0.122 KA relative to UGCAUGU.

Q: With B13 as the binder, how does the binding signal read?
A: The binding signal was 0.0618 KA relative to UGCAUGU.

Q: How did the binding signal turn out when B14 was run?
A: Its binding signal is 0.0868 KA relative to UGCAUGU.

Q: How did the binding signal turn out when B15 was run?
A: The binding signal was 0.0884 KA relative to UGCAUGU.

Q: For B16, which binding signal is on record?
A: The binding signal was 0.0902 KA relative to UGCAUGU.

Q: Which binding signal does the source give for B17 here?
A: The binding signal was 0.111 KA relative to UGCAUGU.

Q: Which binding signal does the source give for B18 here?
A: Its binding signal is 0.0766 KA relative to UGCAUGU.

Q: Which binding signal does the source give for B19 here?
A: Its binding signal is 0.0452 KA relative to UGCAUGU.

Q: Which binding signal does the source give for B20 here?
A: Its binding signal is 0.11 KA relative to UGCAUGU.

Q: Which binding signal does the source give for B21 here?
A: The binding signal was 0.0728 KA relative to UGCAUGU.

Q: For B22, which binding signal is on record?
A: The binding signal was 0.0716 KA relative to UGCAUGU.

Q: With B23 as the binder, how does the binding signal read?
A: Its binding signal is 0.106 KA relative to UGCAUGU.

Q: How did the binding signal turn out when B24 was run?
A: The binding signal was 0.129 KA relative to UGCAUGU.

Q: How did the binding signal turn out when B25 was run?
A: The binding signal was 0.0894 KA relative to UGCAUGU.

Q: With B26 as the binder, how does the binding signal read?
A: The binding signal was 0.0973 KA relative to UGCAUGU.

Q: With B27 as the binder, how does the binding signal read?
A: Its binding signal is 0.131 KA relative to UGCAUGU.

Q: With B28 as the binder, how does the binding signal read?
A: The binding signal was 0.133 KA relative to UGCAUGU.

Q: B29 was tested. Which binding signal did it give?
A: The binding signal was 0.111 KA relative to UGCAUGU.

Q: B30 was tested. Which binding signal did it give?
A: Its binding signal is 0.0524 KA relative to UGCAUGU.

Q: How did the binding signal turn out when B31 was run?
A: Its binding signal is 0.0737 KA relative to UGCAUGU.

Reference: article PMC9911399, “Two distinct binding modes provide the RNA-binding protein RbFox with extraordinary sequence specificity”
